PubChem BioAssay AID445 (National Center for Advancing Translational Sciences (NCATS), 2006)
The campaign covered roughly 110,000 compounds. About 40 (0.04%) were called active. Inconclusive means that the source gave no clear call. Such entries were picked first, then a sample of the others. Calls follow the shape of the dose curve; as a rule, active = well fitted curve in the direction sought with a large enough effect in the signal ratio (not every such curve was filed as active); inconclusive = small, poorly fitted or top-dose-only effect, or a change in a side signal; inactive = flat fitted curve, though single readings scatter; the % refers to the signal ratio. Potencies of inconclusive entries are doubtful fits and often do not repeat.

Assay: IkB Signaling;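 as to IkBa stabilization activation: 0% = basal untreated cells and 100% = reference inhibitor full response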
Conditions: ABC-DLBCL IkBa-CBG/CBR dual luciferase ratio (green luciferase fused to IkBa over red control in OCI-Ly3 lymphoma cells), 4 h; IkBa stabilization activation: at 57.1 µM (top of the series), scaled: untreated 0%, proteasome inhibitor 100% unless noted
Method in brief: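 In this assay, an IκBα–CBG68 fusion accumulates when IKK-driven degradation is blocked; native CBR normalizes for cell number. OCI-Ly3 cells were treated 4 h with compound and doxycycline, then green and red light read after Chroma-Glo addition.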
Potency is read from the fitted curve at half-maximal effect.

Q: For c1cncc(C2Nc3ccccc3-c3nc4ccccc4n32)c1 (stereo not given), which “IkBa stabilization activation” value is on record?
A: inactive: -0.109%

Q: For Cc1cc(N2CCN(C)CC2)nc2ccc(NC(=O)Nc3ccc(F)cc3F)cc12, which IkBa stabilization activation is on record?
A: inconclusive: -0.608% [signal inhibitor]

Q: With N#Cc1c(C(F)(F)F)cc(-c2ccco2)nc1SCc1ccccn1 as the compound, how does the “IkBa stabilization activation” value read?
A: inactive: 4.58%

Q: With CCOC(=O)CNC(=O)Nc1cc(C(=O)NCc2ccc(C(C)C)cc2)ccc1N1CCCC1 as the compound, how does the “IkBa stabilization activation” value read?
A: inactive: 2.36%

Q: For COc1ccc(S(=O)(=O)N2CC(O)CC2C(=O)OCC(=O)Nc2ccc(Cl)cn2)cc1 (stereo not given), which IkBa stabilization activation is on record?
A: inconclusive: 1.87% [signal inhibitor]

Q: With Cc1ccc2[nH]c(=O)c3cc(C(=O)NCc4cccc(Cl)c4)sc3c2c1 as the compound, how does the IkBa stabilization activation read?
A: inconclusive: -0.703% [signal inhibitor]

Q: With COc1ccccc1-c1noc(CSc2nnc(-c3ccccc3)n2-c2ccc(C)c(C)c2)n1 as the compound, how does the IkBa stabilization activation read?
A: inconclusive: 1.77% [signal inhibitor]

Q: For CC(=O)c1ccc(NC(=O)CSc2nc(-c3ccccc3C)nc3c2c(=O)n(C)c(=O)n3C)cc1, which IkBa stabilization activation is on record?
A: inconclusive: 1.09% [signal inhibitor]

Q: For CCOC(=O)c1c(C)oc2nc(C)nc(N(C)Cc3ccccc3)c12, which IkBa stabilization activation is on record?
A: inconclusive: 1.54% [signal inhibitor]

Q: Which “IkBa stabilization activation” value does the source give for O=C(CSc1ncc(-c2ccc(Cl)cc2)[nH]1)Nc1ccccc1F here?
A: inactive: 8.37%

Q: With Cc1ccc(S(=O)(=O)N2CCCC2C(=O)Nc2ccc(Br)cc2)cc1 (stereo not given) as the compound, how does the IkBa stabilization activation read?
A: inconclusive: -0.645% [signal inhibitor]

Q: With O=C(C1CCCN(S(=O)(=O)c2cccc3nonc23)C1)N1CCN(c2cccc(C(F)(F)F)c2)CC1 (stereo not given) as the compound, how does the Potency read?
A: inconclusive: 20 µM [signal inhibitor]

Q: With O=C(c1cc(-c2cccs2)on1)N1CCN(c2ccccc2)CC1 as the compound, how does the Potency read?
A: inconclusive: 5.01 µM [signal inhibitor, partial curve]

Q: For COc1ccccc1N1CCN(c2c(CN3CCCC3)c(=O)oc3ccccc23)CC1, which Potency is on record?
A: inconclusive: 12.6 µM [signal inhibitor]

Q: Which “IkBa stabilization activation” value does the source give for COc1ccccc1C(=O)NCc1ccc2c(c1)OCO2 here?
A: inactive: -0.811%

Q: With COC(=O)c1ccc(COC(=O)c2c(C)nn(Cc3ccccc3Cl)c2Cl)o1 as the compound, how does the IkBa stabilization activation read?
A: inconclusive: 4.31% [signal inhibitor]

Q: For Cc1ccc(-n2nnnc2SCC(=O)N2CCc3ccccc3C2)cc1, which IkBa stabilization activation is on record?
A: inconclusive: 3.2% [signal inhibitor]

Q: Which IkBa stabilization activation does the source give for O=C(C1CC1)N1CCc2cc(S(=O)(=O)NCCC3=CCCCC3)ccc21 here?
A: inconclusive: 4.28% [signal inhibitor]

Q: With Cc1ccc(OCC(=O)N(Cc2nc(-c3ccccc3)no2)C(C)C)cc1C as the compound, how does the IkBa stabilization activation read?
A: inconclusive: 5.2% [signal inhibitor]

Q: With CCCOc1ccc(C(=O)N2CCN(c3ccc(N)cc3Cl)CC2)cc1 as the compound, how does the IkBa stabilization activation read?
A: inconclusive: 3.15% [signal inhibitor]

Q: With Cc1ccc(S(=O)(=O)N2CCCc3cc(NS(=O)(=O)c4ccccc4)ccc32)cc1 as the compound, how does the IkBa stabilization activation read?
A: inconclusive: 4.46% [signal inhibitor]

Q: Which Potency does the source give for COC(=O)c1ccc([C@H]2Nc3ccc(S(=O)(=O)Nc4ccc(F)cc4)cc3[C@H]3C=CC[C@H]32)cc1 here?
A: inconclusive: 25.1 µM [signal inhibitor]

Q: Which “IkBa stabilization activation” value does the source give for CN(C)c1ncc(C(=O)NCc2ccccc2Cl)cn1 here?
A: inactive: 0.549%

Q: Which IkBa stabilization activation does the source give for CCC(=O)N1c2ccccc2C(C)(c2ccccc2)CC1(C)C (stereo not given) here?
A: inconclusive: 12.4% [signal inhibitor]

Q: With CC(C)(C)OC(=O)N1CCC(c2c(C(=O)NCc3ccccc3)cnn2-c2ccc(F)cc2)CC1 as the compound, how does the IkBa stabilization activation read?
A: inconclusive: 8.86% [signal inhibitor]

Q: For CCOc1ccccc1NC(=O)c1cc(S(=O)(=O)N2CCOCC2)cn1C, which “IkBa stabilization activation” value is on record?
A: inactive: 1.72%

Q: With Cc1ccc(NC(=O)c2cc(S(=O)(=O)N3CCCCCC3)ccc2F)cc1F as the compound, how does the IkBa stabilization activation read?
A: inconclusive: 1.8% [signal inhibitor]

Q: Which Potency does the source give for CC(C)Oc1ccc(NC(=O)c2cc3ccccc3o2)cc1 here?
A: inconclusive: 31.6 µM [signal inhibitor, single point]

Q: With Cc1cc(C(F)F)n2ncc(C(=O)NC3CCCCCC3)c2n1 as the compound, how does the “IkBa stabilization activation” value read?
A: inactive: -1.82%

Q: Which IkBa stabilization activation does the source give for C/C(N)=C(/C#N)C(=O)CSc1nnnn1-c1ccc(C)cc1C here?
A: inconclusive: 2% [signal inhibitor]

Q: With COc1ccc(CCNc2oc(COc3cccc(C)c3)nc2C#N)cc1OC as the compound, how does the IkBa stabilization activation read?
A: inconclusive: 6.6% [signal inhibitor]

Q: With Cc1sc2c(c1C)c(=O)n(Cc1ccccc1)c(=O)n2CC(=O)N(C)c1ccccc1 as the compound, how does the IkBa stabilization activation read?
A: inconclusive: -1.94% [signal inhibitor]

Q: With CCCNC(=O)c1cnn2c(C(F)F)cc(-c3ccccc3)nc12 as the compound, how does the IkBa stabilization activation read?
A: inconclusive: -4.56% [signal inhibitor]

Q: For O=C(COc1cccc(Cl)c1)N1CCC(c2nc3ccccc3o2)CC1, which IkBa stabilization activation is on record?
A: inconclusive: -0.842% [signal inhibitor]

Q: For O=C(c1ccccc1F)N1CCN(Cc2cccc(Cl)c2)CC1, which “IkBa stabilization activation” value is on record?
A: inactive: 1.07%

Q: Which “IkBa stabilization activation” value does the source give for Cn1c(C(=O)Nc2ccc3c(c2)OCO3)cc2sccc21 here?
A: inactive: 2.86%

Q: Which IkBa stabilization activation does the source give for Cc1nc2c(-c3ccccc3)c(C)nn2c(C)c1CCC(=O)NCCc1ccccc1 here?
A: inconclusive: -0.305% [signal inhibitor]

Q: For CC(C)c1ccc(NC(=O)N2CCN(c3ccc(Cl)c(Cl)c3)CC2)cc1, which IkBa stabilization activation is on record?
A: inconclusive: -0.0799% [signal inhibitor]

Q: Which IkBa stabilization activation does the source give for Cc1ccc(N2CCN(C(=O)c3c(C)oc4ncnc(N5CCCCC5)c34)CC2)c(C)c1 here?
A: inconclusive: -3.64% [signal inhibitor]

Q: For CCOC(=O)c1cccc(NC(=O)CCc2nc(-c3ccccc3F)no2)c1, which IkBa stabilization activation is on record?
A: inconclusive: 3.29% [signal inhibitor]

Q: With C=C(C)Cn1c(N2CCC(Cc3ccccc3)CC2)nc2c1c(=O)[nH]c(=O)n2C as the compound, how does the IkBa stabilization activation read?
A: inconclusive: 5.14% [signal inhibitor]

Q: For COc1ccc(NC(=O)CSc2nc3c(oc4ccccc43)c(=O)n2-c2ccccc2)cc1OC, which IkBa stabilization activation is on record?
A: inconclusive: 4.55% [signal inhibitor]

Q: For CCC(C)NC(=O)c1ccc2c(c1)nc1n2CCCCC1 (stereo not given), which IkBa stabilization activation is on record?
A: inconclusive: 5.71% [signal inhibitor]

Q: For COCCN1Cc2cccc(C(=O)Nc3ccc4c(c3)OCCO4)c2C1=O, which IkBa stabilization activation is on record?
A: inconclusive: -0.443% [signal activator]

Q: Which IkBa stabilization activation does the source give for CC(=O)c1c(C)n(-c2ccc(Cl)cc2)c2ccc(OC(=O)COc3ccccc3)cc12 here?
A: inconclusive: 10% [signal inhibitor]
